This data set has as its system ATP. The experiment in a line: switch fluorescence ratio, 500 uM ATP over buffer (Cy3 cluster intensity, sum of 5 cycles each) (fold (ratio)); higher = stronger signal-on switching upon ATP binding; sequences stand for … in TCGTCGGCAGCGTCAGATGTGTATAAGAGACAGTTTTTTTTTTTTTTTTTTTTTTTTT…TC. The conditions noted are these: aptamer strand: ATP DNA aptamer (quencher-CACCTGGGGGAGTATTGCGGAGGAAGG + anchor), 100 nM annealed; ATP concentration: 500 uM; one replicate. The method in brief:
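Clusters with intensities outside 100-1000 RFU were excluded. The remaining Cy3-labelled switching-strand clusters on a modified Illumina MiSeq flow-cell had been annealed to 100 nM quencher-labelled ATP aptamer and imaged in selection buffer, then after 15 min with 500 uM ATP at 22 °C, for five cycles separated by NaOH stripping and re-annealing. The fluorescence ratio, averaged per switch-domain sequence, is each cluster's summed target-cycle Cy3 intensity over its summed buffer-cycle Cy3 intensity.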

Values marked as one replicate rest on one cluster of the flow cell; about a third of the high ones do not repeat.
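Note: ATP exposure 15 min at 22 °C before imaging.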

CGAGACTGTT: the switch fluorescence ratio was found to be 1.03. For the sequence TAAAGGTTTC, the switch fluorescence ratio was determined as 0.976. With GGGTCGTAGA the figure was 1.03; with ATTTCTTGCT, 0.949; with CGACCCAGAT, 1.09.

With ACGCACTATC, the switch fluorescence ratio was 1.62. Next, TCTAGGTTGG: 0.975; TGGGCGAATT: 0.984; GATGGAAATT: 1.03. As for GAATATGTAT, the switch fluorescence ratio was 0.988.

Turning to TCCTGCGAAC, the switch fluorescence ratio turned out to be 3.58. Next, GGGATTATAG: 1.03; AAAAGGACAT: 1.03; GCACTCGGGC: 1.05. With CTGGCAGTCG the figure was 0.99; with TGTCTTGAAT, 1.03; with TGGCCAAAAC, 1.07. With TAGGTACGTC the figure was 0.987; with ATACCTGAT, 1.08. With CTACGGTGGG, the switch fluorescence ratio worked out at 1.01. Next, CTGCCAAGGG: 1.08. In the case of GTATAATGCA, the switch fluorescence ratio came out at 0.983. With GGAGCACTG the figure was 1.22; with ACCCAGGAG, 3.64; with GGATAACGG, 0.965.

For CTTGTGCCCT, the switch fluorescence ratio is 0.971. Turning to CGCTTTCCTT, the switch fluorescence ratio came to 1.07.

On to TGCTATGCCT, for which the switch fluorescence ratio stood at 0.99. With TGATCGAGAT the figure was 1.01; with ACGCACCGGC, 1.4; with AAAGTGACTC, 0.967.

With GGCGTCCGTT, the switch fluorescence ratio was 1.03.

Turning to CCGCAGCCGT, the switch fluorescence ratio came to 2.48.

In the case of CGATGTGCG, the switch fluorescence ratio is 0.945.

As to AGTAGTGCA, the switch fluorescence ratio is 1.03.

For CATTCGACTA, the switch fluorescence ratio worked out at 1.09.

Regarding CACTTATAGA, the switch fluorescence ratio was 1.08. As to GTAGGCGCTT, the switch fluorescence ratio worked out at 0.99. Regarding AGGGACAAAG, the switch fluorescence ratio was 0.97. For CAGGGTAGCA, the switch fluorescence ratio worked out at 0.987.

Regarding ATGTCGGGCG, the switch fluorescence ratio was determined as 0.975. Next, TACGCTAAGC: 1.28. Turning to TGGTATT, the switch fluorescence ratio worked out at 1.03.

As to TATGCGTC, the switch fluorescence ratio stood at 1.01. With ACTTTCACT the figure was 1.12; with TGCAGCTCCG, 1.04.

With GTAGCTTCTC, the switch fluorescence ratio was determined as 1.55. With CTGCATTGCG the figure was 1.12; with CTGCTTGGCT, 1.

For the sequence TTCGGGGCAA, the switch fluorescence ratio was 1.01. Next, TGTGGCGCGT: 1.03. Next, ATGTTAAAAT: 0.973; GATTAAATGG: 1.02; CCTGCCGGTA: 1.19.

As to CTACCCTTCA, the switch fluorescence ratio is 1.61. For TAGAATTGAA, the switch fluorescence ratio was 1.01.

Regarding GAGTGAGATC, the switch fluorescence ratio was 1.04. With CGAAGTTCCA the figure was 0.986; with GTATTTTAAG, 1.

CGATGACAGG: the switch fluorescence ratio came out at 1.34. With TAATCGGGCT, the switch fluorescence ratio was 0.985.

As to TAAATTTGCC, the switch fluorescence ratio was 1.07. Consider ATGCACGGCG, for which the switch fluorescence ratio was found to be 1.09. Next, ACGTCGTTCG: 0.993; CAGATTCGGG: 1. With ACGTGCCACG the figure was 1.02; with GATCGCTTAA, 1.03; with ATCCATGAC, 1.04. As for ACCAGGATAC, the switch fluorescence ratio is 1.34.

For TTAAAGCAAT, the switch fluorescence ratio worked out at 2.39. Turning to TAGTCAGAGC, the switch fluorescence ratio is 1.03.

Take TACCCATAAT: the switch fluorescence ratio is 0.966. On to GGTCTCACTA, for which the switch fluorescence ratio was determined as 0.964. Next, AGTTGGACG: 1.05; TGATCCAGCT: 0.939. For CGCTACAGGC, the switch fluorescence ratio was found to be 1.02. As for AGAAGATCGG, the switch fluorescence ratio was 1.02. With ATAAGGTTAT the figure was 0.957. With GCTCTGTGGC the figure was 1.03; with TCTGCCATGC, 2.1; with ATCGCTTTTG, 1.02.

With CATAAGTTTT, the switch fluorescence ratio was 0.999.

GAATGTCCTA: the switch fluorescence ratio was found to be 1.01.

Regarding GAGGACTCGG, the switch fluorescence ratio turned out to be 0.987. With TGGTGGCTCT the figure was 1; with AGTGCGGATG, 0.967.

For the sequence ATTCGTCGTA, the switch fluorescence ratio worked out at 1. ACCGTTGGCC: the switch fluorescence ratio was 1.68.

For the sequence TCTATACTCG, the switch fluorescence ratio is 1.08.

With CGTACGGCAT, the switch fluorescence ratio is 1.07.

CCGCACCCGT: the switch fluorescence ratio amounted to 3.7.

With TGGTGTAGGT, the switch fluorescence ratio is 1.01. Next, GGTGCCTTCT: 0.971; AGTGGAGAGG: 1.05. Next, CTCCTAGAGC: 1.08; TACTGAAGAT: 1.03; GTTTGACGTC: 0.946.

In the case of ATTTCAGACG, the switch fluorescence ratio worked out at 1.03. Consider CTCATAGGAG, for which the switch fluorescence ratio worked out at 1.03.

Consider CTCTCGCAGG, for which the switch fluorescence ratio turned out to be 2.84. Next, GGCCATACGA: 1.04; CTACTGTCAG: 0.981; CGGGGATTCA: 1.01. Next, ACCACGCCGG: 1.08; TCCTCGTCCG: 1.2; GCAAAGATTC: 1.02. Regarding TATGGCAGCA, the switch fluorescence ratio was 1.03.

TTAACATGAG: the switch fluorescence ratio is 1.03. With TTGGGAAGAA the figure was 0.983; with CTTAGGCTTC, 1.03.

As for AGATGGGCTA, the switch fluorescence ratio turned out to be 1.01. On to CTTGTGTATA, for which the switch fluorescence ratio worked out at 1.

TGGTTTCGGA: the switch fluorescence ratio was 1.04.

As to TCTCATTATT, the switch fluorescence ratio stood at 1.03. Next, AGGGCTTGCC: 0.987. With TTTTCGGTTG, the switch fluorescence ratio was 0.964. For the sequence ACTAGTAGT, the switch fluorescence ratio was 1.02. With CGATACGGAT the figure was 0.984. With GTACGCAGAG the figure was 1.27; with AGCCTACAAG, 0.984.
